From the supplement of paper PMC10126150
Values marked as one replicate rest on one cluster of the flow cell; about a third of the high ones do not repeat.

Test system: ATP
Assay: switch fluorescence ratio, 500 uM ATP over buffer (Cy3 cluster intensity, sum of 5 cycles each) (fold (ratio)); higher = stronger signal-on switching upon ATP binding; sequences stand for … in TCGTCGGCAGCGTCAGATGTGTATAAGAGACAGTTTTTTTTTTTTTTTTTTTTTTTTT…TC
Details: aptamer strand: ATP DNA aptamer (quencher-CACCTGGGGGAGTATTGCGGAGGAAGG + anchor), 100 nM annealed; ATP concentration: 500 uM; one replicate
Method in brief: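 Clusters carrying Cy3-labelled switching strands on a modified Illumina MiSeq flow-cell were annealed to 100 nM quencher-labelled ATP aptamer and imaged in selection buffer. They were imaged again after 15 min with 500 uM ATP at 22 °C, over five buffer/ATP cycles with NaOH stripping and re-annealing in between. For each cluster, the fluorescence ratio is the summed Cy3 intensity of the target cycles divided by that of the buffer cycles, averaged per switch-domain sequence. Clusters outside 100-1000 RFU were left out.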
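Also: ATP exposure 15 min at 22 °C before imaging.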

Sequence	switch fluorescence ratio
GACGGAAAA	1.06
AGGGTACCTT	1.02
TGAACTCATT	1.03
TTGATTCCG	1.17
AAGCTCATGT	0.994
CTCATGCAGT	1.6
AAGCATTTAT	0.95
CCAAGCACTC	2.8
ACTGTCACCC	1.31
GATCATTACA	0.984
TGGGGCCTAT	0.936
GATATCTAAT	1.02
ATTCTTGGCT	0.986
GAGGGAGCTA	1.05
AAAGATGGGC	0.975
TGAAAGGTGA	0.993
TATGCATGTT	1.05
CAACGTTGTG	1.03
ATCGCTGACG	0.971
AAAAACCATG	1.08
ACGGATTATT	0.988
GGCGGGGTTA	1.03
ACGGTTGGGG	1.04
TCCATTCTGA	0.985
CGAACGAGCG	0.992

Sequence	switch fluorescence ratio
CTATGGTCGC	0.973
TTTGAAGTT	0.99
GATCCGAATA	1.2
TCAAATGCAT	0.987
GAGACTTAGG	1.02
CAATGAAGTC	0.977
ACTTTTTCCT	1.03
TCGTGCTTCA	1.04
CAGGGCTCTA	0.983
GTGGGCTGGG	1.02
GCTGTTGGC	1.02
TGGCAGCACG	1.02
TTGTCGGATG	1
CAGACGGGAC	1.69
TTGTCCCCCT	0.965
GATATGAAGT	0.984
TAAAATCCAC	1.06
AAAAGTTTAG	1.01
TTCGAAACCT	3.52
CGGAGATATG	0.995
GGTCCCAAG	1.01
GACGATGTTA	1.04
AAATGCGA	1.01
AGCCAGAGCA	1.04
AGAAGTCAAA	0.996

Sequence	switch fluorescence ratio
CTTACCTGCA	1.63
TTAATGCATA	1.02
CTTGTCTTTC	1.05
GACGGTATAT	1.22
GGTTGGATGC	1
GTATAAAATG	1
CTCGCGAGTA	0.956
GCAAGACAAC	1.67
AGTATATCCA	0.983
TCAAATTGAT	1.02
GCAATAAAGA	3.42
TACTGCACAT	1.34
AGTTGTGCAT	1.02
ATCTTACGCC	1.03
TTGTCACAC	1.01
ACTTACGACC	1.44
TGTTTATGGA	0.982
GGTGGACAGG	0.955
TTCATGGAGA	0.973
AAATTTTCCG	1.04
TTGCCGACGT	1.03
CGGTATCCGG	0.995
ACATGCTCTG	1.05
ACAGTACTGT	0.961
AGCAGCCTGC	0.969

Sequence	switch fluorescence ratio
CTAAAGAAGT	0.989
CAGCGGTACA	1.29
AGTTTTTGTG	0.97
GCCCGAGTGG	1.04
CAAGCAGATT	1
CAGTTATTCC	1.08
GAAAGTATAC	1.94
TAACCATGAG	0.978
TAGCAGGGCT	0.975
TTGCCGTGCG	0.957
CCATCGGGAA	1
GACACGTTGC	1.12
AATTGCCCAT	1.02
GTGGTATTAC	1.03
AGGGGGTCAA	0.971
TGCGCTATCG	1.05
TACAACCGTA	1.06
AGCGGATTGA	1.02
GCTCCAAAAC	1.46
AACGTTATTA	1.07
ATTACCGGTT	0.947
CCGAGGTAGA	1.17
ATGCAACGGG	1.03
ATCACTAGAC	1.08
AAATTGCGT	0.993

Sequence	switch fluorescence ratio
ATCTACGAAG	0.994
AGTGGCGGA	0.966
GGCTACGGTG	1.03
GAAGGTGTAT	1.14
TATATTACTC	1.05
GTCCTCCGGA	1.46
CTTCACGCAG	1.11
CGTGAACGGG	1.01
CTTAGAGGTA	0.937
ACTGTCGCGA	0.937
TTTCATTCG	1.07
CTTATTGCAC	1.04
TGAGCCTGGT	0.999
AAACTTGAAT	1.02
GTTACCCGTT	0.98
CCCTGGTTTT	1.33
CACATCGTGC	0.999
CCATTAATAC	3.88
CCGGGCCTGT	1.02
TTCCTCATTC	1.25
TGATCATCGG	0.979
TCGGTTAATT	1.01
TACATAAGTC	1.11
GGCTGTGGTT	0.986
TTCTGGAATA	1.17

Sequence	switch fluorescence ratio
TGTGGAACAG	1
ACCGAATTTT	1.12
CGGACAGTGT	0.998
AAGGCCCTTT	1.02
GTGGTGCGTC	1.02
TAGAGGGACC	1.02
TGTTCCGCAT	4.86
TTATTGAGAC	1.01
CGGCGTAGT	0.957
GCAAATGCAA	0.979
GCGCTAAGAA	1.02
ACTGGATTGC	1.02
GGGTATTCCG	0.956
TTGGATAA	1
GCCACGGGGT	1.02
TTATAGGC	0.973
GCTTCGGTAT	1.05
CATATATAAT	0.958
ACGCTGGGAT	0.989
GGTTTATCTC	0.982
CCTCGGATGT	1.19
TTCAGCCAT	0.961
CTTTAGATGA	1.06
GGGATGTAG	1
CGTTGCTGCG	0.926

Sequence	switch fluorescence ratio
TCATTGTTGT	0.958
TCCCAGTTTC	1.06
GCCCGTTCGT	1.03
GTGGAGGTAG	0.998
GTTAGATCTA	1.01
TAGGCTTTTA	1.02
CGTGAAGCCT	1.03
AGCATGTAAA	0.985
CGAGTGCCCC	1.02
CTCGGAAGGA	1.01
CATGAATTCC	1.07
TAGACCAGCG	0.991
CCTTATGTCA	1.01
TTATGATTAA	0.956
AGCAGTGGTG	1.04
CAGATGGGA	1.03
CCAAGAAACG	1.02
TGAGTTTATG	0.958
TCAGGCCGAC	1
CTTCGCGAAA	1.43
AATGTCGTGT	1.01
TAGGCATTAA	1.02
AACAGAGGGA	1
CGTTGTTTAC	1.07
CAGAGAAAAC	0.976

Sequence	switch fluorescence ratio
ATATTCATGA	1.01
CGGTCGGAAA	1.01
TGAATTGTGA	0.965
CGGGTAAGCG	1.03
ATTGAGAACA	0.978
TTTTCTTACC	1.05
AATGTTGCCG	1
CGCGTCCTAG	1.02
ACCACTTGCT	0.987
TGCAGCATGC	1.19
CGAATGGTCA	0.999
TAGCCGGTCA	1
GAGCCCGTTG	0.941
CGGACAGCGT	0.982
CGATCGTGAT	1.3
GGACGTAGAT	1.01
ATATGTCTAC	1.03
AGGGGATAAC	0.982
CTGATCCGAC	1.51
TATTGCCTCG	1.02
TGTGGTAGCT	0.993
TAGAGGATCT	1.01
TGTTTTACCC	0.961
GTAGGCATTT	1.02
GGTTGATTGT	1.07
